Structures are written as SMILES. The full ranking holds about 110,000 compounds; the median of “z-score” is about -0.1, and the highest 2% start at about 2. Some of the results follow. Activity calls are given as the source filed them.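 Rule for the calls: active = z-score in the third read window above 3 or below -3; inactive = the rest.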

This assay has as its target Metabotropic glutamate receptor 8 (Rattus norvegicus) (UniProt P70579). Description: mGluR8 Gi/Go-coupled signaling modulation – cell-based, rat, thallium flux, HTS, primary screen (AID 488969). Particulars: HEK293 rat mGluR8, GIRK (G protein-gated inwardly rectifying potassium channel) thallium flux, FluoZin2; at 10 µM; stronger effect = higher value; submaximal glutamate (EC20) added with thallium.
Sequence of UniProt P70579 (P70579 whole entry, looked up): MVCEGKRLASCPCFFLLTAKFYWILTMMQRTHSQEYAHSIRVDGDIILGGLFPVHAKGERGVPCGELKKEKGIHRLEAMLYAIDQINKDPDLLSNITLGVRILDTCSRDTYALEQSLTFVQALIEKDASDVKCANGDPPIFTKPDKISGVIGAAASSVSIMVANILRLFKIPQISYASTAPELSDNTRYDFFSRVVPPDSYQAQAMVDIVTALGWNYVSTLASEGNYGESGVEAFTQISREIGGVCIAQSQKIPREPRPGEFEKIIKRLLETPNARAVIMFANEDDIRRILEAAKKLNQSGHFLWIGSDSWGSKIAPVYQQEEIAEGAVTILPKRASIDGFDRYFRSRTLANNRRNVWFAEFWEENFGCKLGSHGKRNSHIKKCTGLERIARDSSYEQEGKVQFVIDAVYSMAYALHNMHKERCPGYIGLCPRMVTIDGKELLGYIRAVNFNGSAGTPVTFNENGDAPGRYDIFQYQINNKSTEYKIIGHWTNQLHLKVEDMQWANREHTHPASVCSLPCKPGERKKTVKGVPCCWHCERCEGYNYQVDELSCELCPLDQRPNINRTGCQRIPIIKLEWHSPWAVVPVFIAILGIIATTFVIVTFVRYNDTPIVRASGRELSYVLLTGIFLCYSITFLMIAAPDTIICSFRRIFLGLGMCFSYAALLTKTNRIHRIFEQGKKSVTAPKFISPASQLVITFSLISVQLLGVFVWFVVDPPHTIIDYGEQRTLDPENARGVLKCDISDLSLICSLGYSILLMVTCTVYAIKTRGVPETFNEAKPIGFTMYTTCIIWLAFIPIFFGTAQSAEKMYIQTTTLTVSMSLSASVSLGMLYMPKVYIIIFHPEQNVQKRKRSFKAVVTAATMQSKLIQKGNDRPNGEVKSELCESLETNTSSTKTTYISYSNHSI
Regarding `CCOC(=O)C(CCCCCOc1ccc([N+](=O)[O-])cc1)C(=O)OCC`, the z-score is -0.105. Then `CC(C)(C)c1ccc(C2(C)NC(=O)N(CC(=O)Nc3ccc4c(c3)OCO4)C2=O)cc1` (stereo not given), with 0.00336; and `Cc1ccc(C(=O)c2nc3c(n2O)CCCC3)cc1`, with -0.0809; and `CCNc1nc(NCC)n2c(SCc3ccc(F)cc3)nnc2n1`, with -1.11. Then `COc1ccc(NS(=O)(=O)c2cc(N/C(=N\S(=O)(=O)c3ccccc3)c3ccc(F)cc3)ccc2Cl)cc1`, with 0.166. Then `CCCCC(c1nnnn1C1CCCC1)N1CCN(C2CCCC2)CC1` (stereo not given), with 0.472; and `COc1ccc2sc(NC(C)=O)nc2c1`, with -1.08; and `COc1ccccc1-c1ccc(Nc2cccc(C(C)=O)c2)nn1`, with -0.138. In the case of `CC(C)(C)NS(=O)(=O)c1ccc(NS(C)(=O)=O)cc1`, the z-score was -0.0947. With `CC(C)C(NS(=O)(=O)c1cccc2nsnc12)C(=O)NCCC1=CCCCC1` (stereo not given) the figure was 1.55; with `Cn1nc(-c2ccc(N3CCOCC3)c(NC(=O)COc3ccccc3)c2)c2ccccc2c1=O`, active: -3.93. Then `COc1ccc(N2C(=O)CSC23CCCCC3)cc1`, with 0.448; and `CCS(=O)(=O)N1CCC(C(=O)NCCc2ccccc2)CC1`, with -0.0762. Then `c1ccc(Cn2nnnc2C(c2ccccn2)N2CCOCC2)cc1` (stereo not given), with 0.358; and `C=C(C)CSc1nc2ncccc2[nH]1`, with 0.0757. In the case of `COc1ccc(CCN(Cc2cccs2)S(=O)(=O)c2ccc(S(=O)(=O)N(C)C3CCCCC3)cc2)cc1OC`, the z-score is -0.219. The compound `O=C(Nc1cccc2ccccc12)N1CCN(Cc2ccc3c(c2)OCO3)CC1` displayed a z-score of -0.297. With `CC(C)C(NS(=O)(=O)c1ccc2c3c(cccc13)C(=O)N2)C(=O)O` (stereo not given) the figure was 0.192; with `O=[N+]([O-])c1cccc(/C=N/Nc2nccnc2Cl)c1`, -0.061; with `Clc1ccccc1CSc1nnc(-c2cccnc2)n1Cc1ccco1`, -0.171. Then `Cc1cc(N2CC(C(=O)O)CC2=O)ccc1Br` (stereo not given), with -0.172; and `CC(C)(C)C(=O)CSc1nc2ncc(Br)cc2[nH]1`, with -0.301; and `Fc1ccccc1NC(=S)N1CCN(C/C=C/c2ccccc2)CC1`, with -0.629. Then `O=C(NCC1CCCO1)C1CC(c2ccccc2Cl)=NO1` (stereo not given), with -0.0231. In the case of `CCCC1(CCC)NC(=O)NC1=O`, the z-score was determined as 0.0587.

The compound `COc1cc(C(=O)Nc2ccc3c(c2)Cc2ccccc2-3)cc(OC)c1OC` showed a z-score of -0.0975. Then `O=C(NCC(c1cccnc1)N1CCN(c2ccccc2F)CC1)OCc1ccccc1` (stereo not given), with -0.468; and `CC(C(=O)Nc1sc2c(c1C#N)CCCCC2)N1C(=O)c2ccccc2C1=O` (stereo not given), with 0.126. In turn, `Cc1ccc(-c2nc(CSCC(=O)N3CCN(C(=O)c4ccco4)CC3)c(C)o2)cc1` returned a z-score of -0.691. With `Cc1ccc(OCC(=O)Nc2cccc(O)c2)cc1C` the figure was 0.18. With `c1ccc2[nH]c(SCc3cn4cccnc4n3)nc2c1` the figure was -0.0437; with `CCN(CC)S(=O)(=O)c1ccc(C(=O)NCc2ccc3c(c2)cc(C)n3C)cc1`, -0.388.

On to `O=C(Cc1ccc(S(=O)(=O)N2CCOCC2)s1)NCCC(c1ccccc1)c1ccccc1`, for which the z-score was -0.555.

In the case of `COc1ccc(NC(=O)C2CCCN(S(=O)(=O)c3cccs3)C2)cc1OC` (stereo not given), the z-score is -0.257.

On to `CCCC(C(=O)NCc1ccco1)N(C(=O)CNS(=O)(=O)c1ccccc1)C1CCCC1` (stereo not given), for which the z-score is -1.28. `COc1ccc(NC(=O)c2ccco2)c(NC(=O)Cc2cccs2)c1`: the z-score amounted to 0.162. Then `COc1ccc(N2C(=O)CCC(C(=O)NCc3cccnc3)C2c2ccc(OC)c(OC)c2)cc1` (stereo not given), with -0.0846.

With `CCOC(=O)C1=C(C)NC(C)=C(C(=O)OCC)C1c1cccs1`, the z-score was -0.253. Compound `CC12CCC(C(=O)O)(c3nc(C#N)c(C#N)nc31)C2(C)C` (stereo not given) had a z-score of 0.701. With `O=C(COC(=O)c1cc(S(=O)(=O)N2CCOCC2)ccc1O)NCCc1ccccc1` the figure was -0.0466; with `CCC(c1nnnn1CCOC)N1CCN(Cc2ccccc2)CC1` (stereo not given), -0.338. Then `CCn1c(NCc2ccc3c(c2)OCO3)nc2ccccc21`, with -0.0327; and `O=c1c(-c2ccco2)[n+]([O-])c2ccccc2n1OCc1ccccn1`, with -0.153; and `CC1CCN(C(C)C(=O)Nc2ccccc2-c2ccccc2)CC1` (stereo not given), with -0.229.

The compound `c1ccc2c(-n3cnnn3)cccc2c1` had a z-score of -0.00649. Then `COc1ccc(CCNC(=O)c2ccc(CNS(=O)(=O)c3ccc(C(C)(C)C)cc3)cc2)cc1OC`, with -0.178. Then `Cc1cccc2cc(/C=C3\N=C(c4ccccc4)OC3=O)c(N3CCOCC3)nc12`, with active: -4.01; and `CN(Cc1ccccc1)S(=O)(=O)c1ccc2c(c1)n(C)c(=O)n2C`, with -0.0711; and `O=C(COc1ccc(Br)cc1)N1CCN(c2ccc([N+](=O)[O-])c(N3CCCCC3)c2)CC1`, with -0.631.

Take `CCOc1ccc(-n2c(C)nc3cc(C(=O)NCc4ccc5c(c4)OCO5)ccc32)cc1`: the z-score is -1.2. Consider `CCC(C)n1c(SCC(=O)NCc2ccco2)nnc1-c1cccc(S(=O)(=O)N2CCOCC2)c1` (stereo not given), for which the z-score was -0.0916. For the compound `O=C1N/C(=C/c2ccc(N3CCOCC3)o2)C(=O)N1c1ccccc1`, the z-score was -0.755. In the case of `Cc1cc(C)c(S(C)(=O)=O)c(Oc2ccc(F)cc2)n1`, the z-score was -0.494. With `Cc1cc2occ(CC(=O)Nc3nnc(C4CC4)s3)c2cc1C` the figure was -0.147; with `COc1ccc(CNC(=O)c2cc3c(s2)CS(=O)C3)cc1` (stereo not given), -0.674; with `CCCCCCc1cc2cc(C(=O)Nc3ccccc3)c(=O)oc2cc1O`, -0.142. Then `Cc1nc(N2CCN(Cc3ccccc3)CC2)[nH]c(=O)c1C`, with -0.342; and `Cc1noc2ncnc(Oc3ccc4ccccc4c3)c12`, with -0.35. Then `O=C1Nc2ccc(F)cc2C12Nc1ccccc1-c1nnc(SCc3ccccc3)nc1O2` (stereo not given), with -0.338. `COc1ccc(NC(=O)CCCn2c(=S)[nH]c3ccccc3c2=O)cc1`: the z-score is -0.514. `O=C1NN(c2ccccc2)C(=O)/C1=C/c1ccc(Sc2cccc3ccccc23)o1` gave a z-score of -0.0479. With `CC1CN(Cc2nc3c(c(=O)n(C)c(=O)n3C)n2Cc2cccc(Cl)c2)CC(C)O1` (stereo not given) the figure was 0.889; with `O=C(CSCSCC(=O)Nc1ccc2c(c1)OCO2)Nc1ccc2c(c1)OCO2`, -0.542. Then `COCn1c(COc2ccccc2)nc2ccccc21`, with -0.0471. As to `COc1ccc(OCCOC(=O)Nc2ccccc2)cc1`, the z-score is -1.63.

`Cc1ccc(NC(=S)NNC(=O)c2ccco2)cc1` showed a z-score of 0.217. Then `CC(=O)NC(C)C(=O)OCC(=O)c1ccc(Cl)s1` (stereo not given), with 0.437; and `Cn1c(=O)c2c(nc(SCC(=O)c3cccs3)n2Cc2ccc(F)cc2)n(C)c1=O`, with -0.767. Take `Cc1nnc(N(C)C(=O)c2ccccn2)s1`: the z-score was -0.146.

For `O=C(CN1CCN(Cc2ccc(F)cc2)C1=O)NCc1cccs1`, the z-score was found to be 0.569.

On to `O=C(Nc1c(C(=O)N2CCCCC2)cnn1-c1ccccc1)c1ccccc1`, for which the z-score was -0.132.

The compound `Cc1c(C(=O)OCC(=O)N2CC(=O)Nc3ccccc32)oc2ccccc12` showed a z-score of 0.186.

`Cn1c(=O)n(C)c(=O)n(CC(=O)N2CCCCC2)c1=O` gave a z-score of 0.305. With `C/C(=N\NC(=O)CNC(=O)C(c1ccccc1)c1ccccc1)c1ccc(C)cc1` the figure was -0.536; with `CCOC(=O)N1CCN(CC(=O)N2c3ccccc3CC2C)CC1` (stereo not given), -0.746; with `CCOC(=O)N/N=C1\CC(C)CC(C)(C)C1` (stereo not given), -0.258. Then `CCOC(=O)C1=C(C)N=C2SC(C)C(=O)N2C1c1ccc(OC(C)=O)c(OCC)c1` (stereo not given), with -0.314; and `CCOC(=O)c1c(C)[nH]c(N=Nc2ccc(C)cc2)c1C`, with 0.218; and `CCn1cc(CNC(=O)/C=C/c2ccc([N+](=O)[O-])cc2)cn1`, with -0.0606. Then `CCOC(=O)Cn1nc(Cc2ccccc2)c2ccccc2c1=O`, with -0.513. `Cc1ccc2c(Cl)c(C(=O)N/N=C/c3cccn3C)sc2c1` registered a z-score of 0.122.

Regarding `CC1(C)CC(=O)c2c(O)cc(O)cc2O1`, the z-score is -0.161. With `O=C1CC(=C2c3ccccc3-c3ccccc32)C(=O)N1CCCCN1CCN(c2ccccc2)CC1` the figure was -0.0433; with `COc1ccc(CNc2nc3nc(C)c(Cl)c(C)n3n2)cc1OC`, -0.508. The compound `Cc1ccc(SC(c2ccccc2)C(Cn2cncn2)C(=O)c2ccccc2)cc1` (stereo not given) had a z-score of -0.171. With `COc1cccc(/C=N/n2c(CO)nc3ccccc32)c1OC` the figure was -0.36; with `O=C1NCCCC1C(=O)N/N=C/c1cccc(O)c1` (stereo not given), 0.229. `C#CCOC(=O)c1ccc(-n2cncn2)nc1` had a z-score of -0.0454.

In turn, `Cc1nn2c(COc3ccc(NC(=O)c4ccccc4)cc3)nnc2c2ccccc12` displayed a z-score of -0.386. Then `CC1(C)CC(=O)/C(=C(\O)Cc2ccccc2)C(=NCCCCCC(=O)O)C1`, with 0.032; and `Cn1c(=O)c2c(nc(N3CCOCC3)n2CCCNC2=NCCCCC2)n(C)c1=O`, with 0.0472.

For the compound `Cc1ccc(-n2nnnc2C(Cl)c2nnnn2-c2ccc(C)cc2)cc1`, the z-score was -0.616. With `CCc1ccccc1NC(=O)CCC(=O)OCC(=O)c1ccc(-c2ccccc2)cc1` the figure was -0.163; with `CCOc1c2ccc(C(=O)NCc3ccccc3OC)cc2nn1CC`, 0.131. Then `CC(=O)/C=C/c1ccc2ccccc2n1`, with 0.038; and `CCOC(=O)Cn1nnc(-c2ccc(SC)cc2)n1`, with -0.332.

Compound `CC(C)CCOc1ccc(-c2c(=O)n(OCc3ccc([N+](=O)[O-])cc3)c3ccccc3[n+]2[O-])cc1` gave a z-score of -0.238. With `COc1cc(C(=O)NC(=S)Nc2ccc([N+](=O)[O-])cc2)cc(OC)c1OC` the figure was 1.31; with `O=S1(=O)CCC(NC(=S)Nc2ccc(Cl)cc2)C1` (stereo not given), 0.0328. With `O=C(COC(=O)C1=COCCO1)Nc1cccc(Oc2ccccc2)c1` the figure was -0.192; with `Cc1ccc2c(CC(=O)OC(C)C(=O)Nc3ncc(Cl)cc3Cl)coc2c1` (stereo not given), -0.356; with `O=C(CCc1ccccc1)NCc1cccnc1`, -0.814. Then `CCCS(=O)(=O)N1CCC(C(=O)N2CCOCC2)CC1`, with -0.364. In the case of `O=S(=O)(/N=S1/CC=CCN1S(=O)(=O)c1ccccc1)c1ccccc1` (stereo not given), the z-score was -0.0838.

For `Cc1ccc(N(C)C(=O)N2CCN(S(=O)(=O)c3c(C)cc(C)cc3C)CC2)cc1`, the z-score was -0.4. `COc1ccc(N)c2c1OCCC2=O` had a z-score of 0.265.

Compound `Cc1ccc(N(Cc2ccco2)C(=O)c2cccc(S(=O)(=O)N(C)C)c2)cc1` yielded a z-score of -0.0289.

For the compound `Cn1c(CCCCCN)nc2ccccc21`, the z-score is -0.166. With `C=CCNC(=O)c1ccccc1NC(=O)c1ccc(Cl)c(S(=O)(=O)Nc2cccc(C)c2C)c1` the figure was -0.277; with `COc1ccc(NC(=O)COC(=O)c2c3c(nc4ccccc24)CCCC3)cc1`, -0.731.

The values are drawn from PubChem BioAssay AID488969 (Vanderbilt High Throughput Screening Facility, 2010).
